In PMC4242493:
The other results are listed elsewhere or left out. The list includes weakly bound sequences.

These sequences were tested against MaxL homodimer (UniProt P61244) (assay: universal protein-binding microarray (PBM)). Conditions: PBS-based mixture, 10 nM His-tagged protein dimer, 2% milk, 200 ng/uL BSA, 50 ng/uL salmon testes DNA, 0.02% TX-100; detection with Alexa 488 anti-His …; high values mean tight binding; most listed sequences are background and not binding sites; double strand, one strand shown.
Chain of UniProt P61244 (P61244 whole entry): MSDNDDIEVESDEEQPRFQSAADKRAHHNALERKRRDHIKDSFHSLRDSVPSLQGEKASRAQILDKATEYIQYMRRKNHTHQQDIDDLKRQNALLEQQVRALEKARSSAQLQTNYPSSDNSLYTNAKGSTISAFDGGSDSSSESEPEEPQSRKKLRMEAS

Sequence	binding signal (normalized occupancy)
GAAAGGGA	0.0738
GATTACAA	0.0738
CTGGGGTA	0.0774
AGAGCCCT	0.07
CACGGTCG	0.0692
ATGTAGCG	0.0794
CACGAGTC	0.0906
CTGTCTAC	0.0705
TAGTTTAA	0.0713
ACTGCCCC	0.0751
CATTCTGC	0.0713
CTTGCTCC	0.0703
AGTGATGA	0.0766
AAGGGATT	0.0727
ATTTCCCC	0.0768
ATGAAATC	0.0738
ATCTCAAT	0.0775
CCCGTGGC	0.0811
CCTACCCG	0.0752
TACCCTCA	0.076
CTAATATC	0.0788
CGCACCTC	0.0755
CGGCCTCC	0.0696
CTGTCAAC	0.0747
ATCGCAAG	0.0733

Sequence	binding signal (normalized occupancy)
ACAAGGCC	0.0794
TATGGGAA	0.0791
CAGGGGTC	0.0733
GGTTTACA	0.0767
ACCACATA	0.0854
AATTTGGT	0.0725
CGATATTC	0.0696
CGATTCGA	0.0744
ACAATTAC	0.0798
ATCTAGAA	0.0751
TATTGAAA	0.0766
AGAACTGC	0.0718
CCAGGCCC	0.0736
CCAACATC	0.0806
GATAGACC	0.0792
ACTGTTGC	0.0719
AGTGCGGA	0.0714
AGAGGGAT	0.0764
AGAAGTGA	0.0777
CGCTACCG	0.0768
AAGAGCCT	0.0711
GCCTAAAC	0.0686
GATAATCC	0.0777
CCCGTTCA	0.0789
CGGGAAAG	0.0686

Sequence	binding signal (normalized occupancy)
GGCCATCA	0.0767
ATCCGTGA	0.0767
CTCACTGC	0.0713
CTCGAGGC	0.0764
CATGTAGC	0.0826
AAATGCTC	0.0794
AAGGTAGG	0.078
AGCGGACC	0.0695
CGGCCCAG	0.0685
AATCACGC	0.0974
CGGGTTGC	0.0677
AGGGTACC	0.0703
CTGACAGC	0.071
ACCAATGA	0.0767
TAATACCA	0.0792
GGTAGGCA	0.0784
TCGGACAA	0.0734
CGTGACAG	0.0844
AGCAGTAC	0.0766
GATACAAC	0.0773
ACGTTAGG	0.0857
CTCGAGAG	0.0744
ACGTTAGT	0.0741
ACGATTAT	0.0841
CCTAAAAC	0.0725

Sequence	binding signal (normalized occupancy)
AAAGTACG	0.0698
TGCTGCAA	0.0784
CGCCTTAG	0.0698
ATTGTCGA	0.0742
CTCGTTTC	0.0748
CAAAAGGA	0.0709
ATTAGAAC	0.0811
CCAGAGCA	0.069
AGTGAATA	0.0777
CTAGTGCA	0.0807
AATAGAGA	0.0773
CACATGGA	0.162
CAATAGTA	0.0769
ATCCCACG	0.093
AGGGAGTA	0.0754
GGAAAGAA	0.0743
TCGTTCCA	0.0775
AGCTGGCA	0.0685
AACATCCC	0.0765
GGGCATGA	0.087
ATGAAAGG	0.0761
CGGGGAAA	0.0698
ACCGACGG	0.0644
CGGGAACG	0.0714
CACCCCGC	0.0823

Sequence	binding signal (normalized occupancy)
ACCGAATA	0.0807
ACTTGTGA	0.0794
AGGCGGTG	0.0732
ACCGTAGT	0.0692
AGACTGGG	0.0695
AGCACATC	0.0841
GAGGCAGA	0.0719
CAATCTAA	0.0757
ACTGTACA	0.0773
TCGTGCCA	0.0874
GTCTCAAC	0.0731
GCCTCCCA	0.0696
ACCAGCAC	0.0771
ACGTAGCC	0.0725
TAGCGTCA	0.0779
AAGGTTGT	0.0756
AAGTACGC	0.0681
TAGATTGA	0.0791
CTTGGACA	0.0694
CTGATTGA	0.0743
CTTTCACC	0.0747
CTACTGAA	0.0695
AATTGCCA	0.0744
ACGACGCC	0.0744
GCTTATTA	0.082

Sequence	binding signal (normalized occupancy)
AACGCTTA	0.0733
ACTGACGG	0.0729
GACGGATA	0.0752
CCAGTCAA	0.0719
ACCCCAAT	0.0832
TAGGTAAA	0.0721
ACAAGCTC	0.0721
GAATGTGC	0.0815
CTAAGGAC	0.0719
GCTCCAGC	0.0704
CCGAAAAC	0.0743
TTAACCAA	0.0791
GACACAGC	0.0745
GAGGTTCC	0.0746
GATAGGCA	0.0772
ACGCCACC	0.0799
GCCACGGC	0.0738
ATCCAGAT	0.0777
AATCGCGA	0.0731
TCAGGCCA	0.0733
CCAGTGAG	0.0717
GCCAGGAC	0.0757
ATTGATAG	0.0767
CTTGCCGA	0.0676
ATCTCCGA	0.0738

Sequence	binding signal (normalized occupancy)
AACAAATA	0.0809
AAACTTGC	0.0748
CTAAGCTA	0.0708
ATGTAGTG	0.0796
AAGCCCCT	0.0709
ATTAGCCA	0.0766
CGCCCGAA	0.0715
ATCACCAG	0.0723
CCGGCCTC	0.0687
GTTGGAAA	0.0748
CGATCTCC	0.0714
CCCGCGTC	0.0709
ACGGATGC	0.0722
AACCGGGG	0.072
GATGCCGA	0.0738
GACCTAGC	0.0704
CCGGGTAG	0.0691
CACGCGAC	0.131
GTTCGCAA	0.0745
ATGTATAC	0.0915
ACTTGCCC	0.0727
CGGAACCC	0.0682
